Hit rate of the full screen: of about 410,000 compounds, about 5,000 (1.2%) were called active. Inconclusive results, whose numbers are uncertain, are shown with a selection of clear calls. Calls follow the shape of the dose curve; as a rule, active = well fitted inhibition curve with a large enough effect; inconclusive = small, poorly fitted or top-dose-only effect; inactive = no such curve, though single readings can be large or run the other way. Where the call is inconclusive, the potency comes from a doubtful curve fit.
Assay: qHTS for Inhibitors of TGF-b; also: nearly all actives have a fitted effect of over 65% in size
Settings: HepG2 CAGA-GFP TGF-b/SMAD3 reporter, GFP fluorescence, 18 h, TGF-beta stimulated, 500 pg/mL final; series mostly up to 46.1 µM; activity, negative = inhibition: at the top concentration
Procedure, shortened: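 Smad-responsive CAGA-GFP expression was quantified in HEPG2 cells exposed to compounds and 500 pg/mL final TGF-beta for 18 h at 37 degrees C; unstimulated wells defined full inhibition.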
With `CCc1ccc(S(=O)(=O)c2nnn3c2nc(NCCNC(C)=O)c2cc(Cl)ccc23)cc1` the “activity, negative = inhibition” value was inactive: 8.02%.
In the case of `COc1ccc(CNC(=O)C(c2ccco2)N(Cc2ccccc2)C(=O)Cc2cccs2)cc1` (centres undefined), the Potency is reported as inconclusive: 5.62 µM [inhibitor, single point].
For `CC(C)(C)NC(=O)c1oc2ccccc2c1NC(=O)c1ccc(F)cc1`, the “activity, negative = inhibition” value was inactive: 1.61%.
With `COc1ccccc1NCC(=O)N/N=C/c1cccnc1` the “activity, negative = inhibition” value was inactive: 4.51%.
For `Oc1c(Cl)cccc1C=Nc1cc(C(F)(F)F)ccc1N1CCCC1`, the “activity, negative = inhibition” value was inactive: 15.9%.
In the case of `CC(C)CCn1c(NCCc2ccccc2)nc2c1c(=O)n(C)c(=O)n2C`, the “activity, negative = inhibition” value is reported as inactive: -13.6%.
For `C=CC[C@@H](CC(=O)N(CCO)Cc1ccccc1)C(=O)NC[C@H](OC(=O)[C@@H](CC=C)Cc1ccc(F)cc1)c1ccccc1`, the Potency was inconclusive: 35.5 µM [inhibitor, single point].
With `CCCS(=O)(=O)NC(=O)C1(C)CCN(C(=O)c2ccc3ccccc3n2)C1` (centres undefined) the “activity, negative = inhibition” value was inactive: -2.91%.
With `Cc1cc(C)c2ccc(Cl)cc2n1` the “activity, negative = inhibition” value was inactive: 2.51%.
For `COc1cc(-c2cc(OC)c3c(C)oc(C)c3c(=O)c2)ccc1OC(=O)c1cccc(Cl)c1`, the “activity, negative = inhibition” value was inactive: -33.5%.
With `O=C(NC1CCCC1)c1ccc([N+](=O)[O-])s1` the Potency was inconclusive: 35.5 µM [inhibitor, single point].
With `COC(=O)C1(C)CCCC2(C)c3cc(OC)ccc3C(=O)C(Br)C12` (centres undefined) the Potency was inconclusive: 17.8 µM [inhibitor, single point].
With `COc1ccc(C(=O)NNC(=S)NC(=O)c2cccs2)cc1` the “activity, negative = inhibition” value was inactive: -2.99%.
With `CCN(CC)C(=O)C1CCCN(Cc2ccc3ccccc3c2)C1` (centres undefined) the “activity, negative = inhibition” value was inactive: -4.19%.
In the case of `Cc1ccc(-n2c(C)cc(/C=C3\NC(=O)NC3=O)c2C)c(C)c1`, the Potency is reported as inconclusive: 35.5 µM [inhibitor, single point].
With `CCn1ncc(S(=O)(=O)N2CCN(c3cccc(OC)c3)CC2)c1C` the Potency was inconclusive: 35.5 µM [inhibitor, single point].
For `COc1cc(NS(=O)(=O)c2ccc3ccccc3c2)c2ncccc2c1`, the Potency was inconclusive: 3.98 µM [inhibitor, full curve, poor fit].
With `CCCCc1ccc(NC(=S)N2CCCC2)cc1` the Potency was inconclusive: 17.8 µM [inhibitor, single point].
For `CCc1ccc(NS(=O)(=O)c2ccc3oc(=O)ccc3c2)cc1`, the Potency was inconclusive: 0.891 µM [inhibitor, full curve, poor fit].
In the case of `Cc1onc(-c2c(Cl)cccc2Cl)c1CO/N=C(\C#N)c1c(Cl)cccc1Cl`, the Potency is reported as inconclusive: 12.6 µM [inhibitor, single point].
For `O=C1c2ccccc2NC(c2ccccc2OCc2ccccc2)N1Cc1ccco1` (centres undefined), the Potency was inconclusive: 22.4 µM [inhibitor, partial curve, poor fit].
In the case of `Cc1ccc(C(=O)C[n+]2cc(-c3ccc(C)cc3)n3c2CCCCC3)cc1`, the Potency is reported as inconclusive: 35.5 µM [inhibitor, single point].
In the case of `O=C(Nc1ccc(S(=O)(=O)N2CCCCCC2)cc1)c1cc(=O)c2ccccc2o1`, the Potency is reported as inconclusive: 5.62 µM [inhibitor, single point].
In the case of `CN(C)c1ccc(-c2c(-c3ccc4c(c3)OCO4)noc2-c2ccsc2)cn1`, the Potency is reported as inconclusive: 10 µM [inhibitor, partial curve, poor fit].
For `O=[N+]([O-])c1cc2c(cc1Br)-c1ccccc1C2`, the Potency was inconclusive: 25.1 µM [inhibitor, single point].
With `CCOC(=O)C(=O)Nc1cc(C)nn1-c1nc2ccccc2[nH]1` the “activity, negative = inhibition” value was inactive: 6.3%.
For `O=C(Nc1ccc(-c2csc(Nc3cccc(C(F)(F)F)c3)n2)cc1)c1cc([N+](=O)[O-])cc(C(F)(F)F)c1`, the “activity, negative = inhibition” value was inactive: -14.6%.
For `COC(=O)CCC(=O)c1oc2ccccc2c1N`, the “activity, negative = inhibition” value was inactive: 0%.
For `COc1ccccc1NC(=O)C1CCC(CNS(=O)(=O)c2ccc3c(c2)CC(C)N3C(C)=O)CC1` (centres undefined), the Potency was inconclusive: 4.47 µM [inhibitor, partial curve].
For `COc1cc(-c2cnc3c(NC=O)cc(-c4cccc(C(F)(F)F)c4)cn23)cc(OC)c1OC`, the Potency was inconclusive: 20 µM [inhibitor, partial curve, poor fit].
For `COc1cccc2c(=O)c3cccc(N)c3[nH]c12`, the Potency was inconclusive: 10 µM [inhibitor, partial curve, poor fit].
With `CCC1Oc2ccccc2N(CC(=O)NCc2cccs2)C1=O` (centres undefined) the Potency was inconclusive: 6.31 µM [inhibitor, single point].
With `CCN(Cc1ccccc1)C(=O)c1cccc(S(=O)(=O)N2CCN(c3ccc(F)cc3)CC2)c1` the Potency was inconclusive: 35.5 µM [inhibitor, single point].
For `CCC(=O)N(CCC(Cc1ccccc1)c1ccc2c(c1)OCO2)Cc1ccccc1F` (centres undefined), the Potency was inconclusive: 35.5 µM [inhibitor, single point].
For `Cc1ccc2nc3c(c(Nc4ccc(O)cc4)c2c1)CCC3`, the Potency was inconclusive: 14.1 µM [inhibitor, single point].
In the case of `Cc1ccc(Cl)c(OCCCCN(C)Cc2ccccc2)c1`, the “activity, negative = inhibition” value is reported as inactive: -0.944%.
With `CN1CCN(C(CNC(=O)C(=O)Nc2cccc(Cl)c2)c2ccc3c(c2)OCO3)CC1` (centres undefined) the Potency was inconclusive: 35.5 µM [inhibitor, single point].
For `Cc1ccc(NC(=S)N2CCN(c3ccccc3F)CC2)c(C)c1`, the “activity, negative = inhibition” value was inactive: -1.8%.
For `CCOc1ccc(N/C(N)=N/c2nc(C)cc(C)n2)cc1`, the Potency was inconclusive: 5.62 µM [inhibitor, partial curve].
With `c1ccc(OCCn2c(COc3ccccc3)nc3ccccc32)cc1` the Potency was inconclusive: 25.1 µM [inhibitor, single point].
For `CCN(C[C@H]1N[C@@](CC)(C(=O)OC)[C@H]2C(=O)N(Cc3ccccc3)C(=O)[C@@H]12)S(=O)(=O)c1ccc(C(F)(F)F)cc1`, the Potency was inconclusive: 20 µM [inhibitor, single point].
In the case of `O=C(N/N=C/c1cccc(C(F)(F)F)c1)c1ccccc1O`, the Potency is reported as inconclusive: 0.355 µM [inhibitor, full curve, poor fit].
With `COCCCNC(=S)N/N=C/c1cccc(OC)c1O` the Potency was inconclusive: 1.41 µM [inhibitor, full curve].
In the case of `COc1ccc(/C=C/C2=CC(C)(C)NC(=S)N2)cc1OC`, the “activity, negative = inhibition” value is reported as inactive: -19.7%.

— PubChem BioAssay AID588855 (National Center for Advancing Translational Sciences (NCATS), 2011)
% is scaled to controls: 0 for no effect and ±100 for the full control effect; potency is read from the fitted curve at half-maximal effect; tags tell the direction and shape of the fitted curve.
